The results in this text go back to PubChem BioAssay AID485344 (National Center for Advancing Translational Sciences (NCATS), 2010).

The campaign covered roughly 340,000 compounds. About 6,900 (2%) were called active. No stated cut-off is given here; in the data, active means inhibition above about 30%; inactive means below that, where a call was filed. Only a part is listed here, and it is no random draw. Entries without a call were filed so in the source.

One may read the inhibition as the relative decrease from the control value, in per cent.

Chain of UniProt P14416 (P14416 whole entry, looked up): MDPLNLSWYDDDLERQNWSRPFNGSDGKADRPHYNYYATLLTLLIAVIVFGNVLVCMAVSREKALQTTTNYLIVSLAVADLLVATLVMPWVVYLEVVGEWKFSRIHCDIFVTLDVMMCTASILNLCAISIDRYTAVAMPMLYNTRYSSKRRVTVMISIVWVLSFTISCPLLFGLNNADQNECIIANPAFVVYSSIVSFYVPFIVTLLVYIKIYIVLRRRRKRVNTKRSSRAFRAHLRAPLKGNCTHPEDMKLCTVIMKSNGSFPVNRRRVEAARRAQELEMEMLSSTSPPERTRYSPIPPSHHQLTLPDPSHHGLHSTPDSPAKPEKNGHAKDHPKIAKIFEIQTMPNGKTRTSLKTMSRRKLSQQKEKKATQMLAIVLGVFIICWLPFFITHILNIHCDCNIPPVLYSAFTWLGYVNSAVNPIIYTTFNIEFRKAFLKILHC

This test concerns the target D(2) dopamine receptor (Homo sapiens) (UniProt P14416). In words: HTS Assay for Allosteric Antagonists of the Human D2 Dopamine Receptor: Primary Screen for Antagonists. Further: 0% is about no effect. The conditions noted are these: HEK293 TREx D2 cells, calcium flux, dopamine EC80; at 10 µM; stronger effect = higher value. A digest of the protocol:
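Antagonism is scored as inhibition of an EC80 dopamine-evoked calcium signal in a force-coupled, tetracycline-inducible HEK293 T-REx D2 line, with compound present 180 s before agonist.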
With `COC(=O)CCN(c1ccccc1)C(CNS(=O)(=O)c1ccccc1)c1ccccc1` (stereo not given), the inhibition was -5.03%.

For `CN(Cc1nc(-c2ccccn2)no1)S(=O)(=O)c1ccccc1`, the inhibition is active: 37.5%.

As to `COc1ccc(Nc2oc(/C=C/c3ccccc3OC)nc2C#N)cc1`, the inhibition was -11.4%.

For the molecule `O=C(Nc1cccc(C(=O)OCc2cc(=O)n3nc(C4CC4)sc3n2)c1)c1cccc(Cl)c1`, the inhibition is -9.69%.

In the case of `CCOc1ccc(CCNC(=O)Cn2c(-c3cccs3)cc3ccccc32)cc1OCC`, the inhibition is -5.47%.

`Cc1ccc(C)c(NC(=O)CSc2ccc3nc(-c4ccccc4)cn3n2)c1`: the inhibition is 16.3%.

Regarding `Cc1cc2oc(C(=O)N(Cc3ccc(N(C)C)cc3)Cc3ccco3)c(C)c2cc1Cl`, the inhibition worked out at 5.89%.

Regarding `Cc1ccccc1Nc1nc(N)c(C(=O)c2ccccc2Cl)s1`, the inhibition was 12.5%.

For the molecule `Cc1ccc(C(=O)Nc2cccc3[nH]c(C(F)(F)F)nc23)cc1`, the inhibition was active: 33.6%.

Turning to `CCCCc1ccc(NC(=O)CSc2nc(=O)[nH]c3c2CCCC3)cc1`, the inhibition is 10.2%.

Turning to `Cc1ccc(N2C(=O)CSC23C(=O)N(CC(=O)NCc2ccccc2)c2ccccc23)cc1` (stereo not given), the inhibition is -4%.

With `O=C(CN1C(=O)C2(SCC(=O)N2c2ccc(F)cc2)c2ccccc21)NC1CCCCC1` (stereo not given), the inhibition was determined as 0.869%.

Take `Cc1ccc2c(c1)C(=O)OC(C(=O)Nc1ccccc1C(=O)O)C2` (stereo not given): the inhibition was determined as 1.89%.

Take `O=S(=O)(Nc1ccc(-c2cn3ccccc3n2)cc1)c1ccccc1`: the inhibition was active: 40%.

For `CC1=C(c2ccc(C)c(C)c2)S(=O)(=O)N(Cc2ccc(C(=O)Nc3cc(F)ccc3F)cc2)C1=O`, the inhibition is -0.913%.

In the case of `Cc1ccc(N2CC(NC(=O)c3cccs3)CC2=O)cc1` (stereo not given), the inhibition came to 0.174%.

Consider `CCc1cccc(CC)c1NC(=O)c1c(C)oc2ccc(O)c(CN3CCCC3)c12`, for which the inhibition was -6.54%.

For `O=C(CCCN1C(=O)c2cccnc2Oc2ccc(Cl)cc21)NCc1ccc(F)cc1`, the inhibition was 5.27%.

As to `CN1CCN(CCNC(=O)c2cnn(-c3ccc(F)cc3)c2C2CCN(C(=O)OC(C)(C)C)CC2)CC1`, the inhibition is -6.16%.

As for `Cc1cccc(C)c1OCC(=O)N(Cc1ccco1)Cc1ccco1`, the inhibition was -1.97%.

Turning to `Cc1ccnc(NS(=O)(=O)c2ccc(NC(=O)c3ccc(C)c(C)c3)cc2)n1`, the inhibition is -2.36%.

In the case of `O=C(CNC(=O)c1ccc([N+](=O)[O-])cc1)N/N=C\c1ccc(OC(=O)c2ccccc2)cc1`, the inhibition was active: 59.4%.

As for `C=Cc1ccc(Cn2c(C)c(CNCCc3ccc(OCC)cc3)c(C(=O)O)c2C)cc1`, the inhibition is -3.56%.

With `CCn1cc(C(=O)N2CCN(c3cccc(Cl)c3)CC2)c(=O)c2cc(S(=O)(=O)N3CCC(C)CC3)ccc21`, the inhibition came to 11.5%.

As to `CCOC(=O)c1c(C)[nH]c(C)c1S(=O)(=O)N1CCC(C(=O)N2CCN(c3ccc(F)cc3)CC2)CC1`, the inhibition was found to be 22.2%.

Take `O=C(N/N=C/c1ccc(Br)s1)c1c[nH]c2ccccc12`: the inhibition was active: 34.1%.

`Cc1ccc2c(=O)cc(CSc3ncn[nH]3)[nH]c2c1C`: the inhibition was -18.5%.

`Cc1nn2c(C)c(C(=O)N3CCN(c4ccc(Cl)cc4)CC3)cnc2c1-c1ccc(F)cc1`: the inhibition was found to be 6.01%.

Regarding `O=S(=O)(c1ccc(-c2cnc(C3CC3)o2)cc1)N1CCN(c2ccccc2F)CC1`, the inhibition stood at 16.7%.

As for `COc1cc2c(cc1OC)n(CC(=O)c1ccc(C)cc1C)c(=O)n1nc(CCn3nc(C)cc3C)nc21`, the inhibition is -0.404%.

`O=C(NCCCN1CCN(c2cccc(Cl)c2)CC1)c1ccc2nc(Cc3ccccc3)oc2c1`: the inhibition is 15.3%.

For the molecule `CCOC(=O)N1CCN(C(=O)Nc2ccc3oc(C)nc3c2)CC1`, the inhibition is active: 44.4%.

Consider `COc1ccc(OCC(O)CN2C(=O)NC(C)(C)C2=O)cc1` (stereo not given), for which the inhibition is active: 31.1%.

Take `COc1cccc(CNC(=O)Cn2nc(C)c3sc4ccccc4c3c2=O)c1OC`: the inhibition is -3.09%.

Turning to `Cc1cccc(Nc2sc(C(=O)c3ccc(Cl)cc3)c(N)c2C(N)=O)c1`, the inhibition came out at 12.3%.

On to `COc1ccc(NC(=O)c2cc(-c3ccccc3F)no2)cc1`, for which the inhibition is 5.95%.

On to `O=C(O)CCCC(=O)Nc1nc2n(n1)C(c1ccc(F)cc1)CC(c1ccc(Cl)cc1)N2` (stereo not given), for which the inhibition is active: 32.3%.

For `CCc1ccc(NC(=O)Cn2c(=O)n(CCCC(=O)NCc3ccc4c(c3)OCO4)c(=O)c3ccccc32)cc1`, the inhibition worked out at 8.26%.

Turning to `CC(=O)C1=C(c2cccc([N+](=O)[O-])c2)N(C(C)=O)n2c(nnc2-c2ccc(C)cc2)S1`, the inhibition is -13.8%.

As for `Cc1occc1C(=O)N/N=C/C=C/c1ccccc1[N+](=O)[O-]`, the inhibition is active: 37.6%.

For the molecule `CCOC(=O)c1c(S(=O)(=O)N2CCCC(C(=O)N3CCN(c4cc(C)ccc4C)CC3)C2)c(C)n(C)c1C` (stereo not given), the inhibition stood at 0.751%.

As to `CCOC(=O)C(CC)N1CCN(Cc2ccc(F)cc2)C(=O)C1=O` (stereo not given), the inhibition stood at 10.7%.

For the molecule `O=C(Nc1nc2c(F)cccc2s1)c1ccc(S(=O)(=O)N2CCCc3ccccc32)cc1`, the inhibition is -2.38%.

For `CCn1nc(C)c2c(-c3ccccc3)cc(=O)n(C(C)C(=O)Nc3cc(C)ccc3C)c21` (stereo not given), the inhibition amounted to 5.49%.

As for `COc1ccc(-c2ccc(NS(=O)(=O)c3cc(C)c(C)cc3C)cc2)nn1`, the inhibition was 9.69%.

For the molecule `O=C(c1ccc(F)cc1)C1CCN(CCn2c(=O)[nH]c3ccccc3c2=O)CC1`, the inhibition was active: 58.4%.

Take `Cc1c(C)n(-c2ccccc2)c2ncnc(NCCN(C)C)c12`: the inhibition was active: 39.7%.

Take `CCOC(=O)c1c(NC(=O)C2c3ccccc3Oc3ccccc32)sc2c1CCC(CC)C2` (stereo not given): the inhibition is -13.3%.

`Clc1ccc(CCNC(c2ccc(Cl)cc2)c2nnc(-c3ccccc3)o2)cc1` (stereo not given): the inhibition was -12.1%.

`CCc1ccc(NC(=O)Cn2nc(SC)c(S(=O)(=O)c3ccc(OC)cc3)c2N)cc1`: the inhibition is -0.966%.

Turning to `CC(C)c1nnc(NC(=O)CCC(=O)Nc2ccc(Cl)cc2)s1`, the inhibition was active: 40.6%.

Turning to `Cc1cc(C)cc(OCCSc2nc3ccc(NC(=O)COc4ccccc4)cc3s2)c1`, the inhibition was -14.1%.

Consider `O=C(O)CCCCCCCCc1cn(Cc2ccc(C(=O)c3ccccc3)cc2)nn1`, for which the inhibition was active: 41.6%.

Turning to `Cc1ccc(OCC(=O)Nc2nonc2-c2ccc(Br)cc2)cc1C`, the inhibition was -19.6%.

Regarding `COc1ccc(-c2nnc(SCCOc3ccccc3C)o2)cc1OC`, the inhibition amounted to 5.66%.

Take `Cc1cn(C)c(CC(=O)Nc2ccc(F)cc2Cl)c1C(=O)O`: the inhibition turned out to be 13.9%.

As to `O=S(=O)(c1ccc(Cl)cc1)c1nc(-c2cccs2)oc1SCc1ccccc1F`, the inhibition was -19.2%.

For `CCOc1ccc(C2c3c(oc4ccc(C)cc4c3=O)C(=O)N2CCCN(C)C)cc1OC` (stereo not given), the inhibition turned out to be 1.69%.

For `CC(C)Oc1ccc(CNC(=O)c2sc3ncccc3c2-n2cccc2)cc1`, the inhibition was -11.8%.

With `COc1ccc(-n2nc(C(=O)Nc3ccc(C(C)=O)cc3)nc2-c2ccccc2)cc1`, the inhibition was 9.47%.

Turning to `CSc1ccc(-c2nc3cccc(C)n3c2Nc2ccc3c(c2)OCO3)cc1`, the inhibition is -10.1%.

On to `COc1ccc(-c2nnc(SC(C)C(=O)O)o2)cc1` (stereo not given), for which the inhibition is -12.3%.

With `O=C(CN1C(=O)CSc2ccc(S(=O)(=O)N3CCCC3)cc21)NCc1ccccc1Cl`, the inhibition was found to be 5.86%.

With `Cc1ccc(OCC(=O)Nc2c(C(=O)c3ccc(Cl)cc3)oc3ccccc23)cc1C`, the inhibition is -18.6%.

As for `COc1ccc(N2CCN(C(=O)c3cc(S(=O)(=O)N4CCCCCC4)ccc3OC)CC2)cc1`, the inhibition is active: 39.8%.

In the case of `CC(=O)N1CCCc2cc(S(=O)(=O)N3CCCC(C(=O)NC(C)C)C3)ccc21` (stereo not given), the inhibition came out at 20.4%.

As for `CCCCNC(=O)CCc1c(C)nc2cc(-c3ccccc3)nn2c1C`, the inhibition was 5.79%.

With `COc1ccc(N2C(=O)C(CC(=O)Nc3ccccc3)N(CCC3=CCCCC3)C2=O)cc1` (stereo not given), the inhibition amounted to 3.35%.

With `Cc1[nH]c2ccccc2c1C1(O)C(=O)N(Cc2ccccc2)c2ccc(Cl)cc21` (stereo not given), the inhibition is 5.03%.

In the case of `CCc1ccccc1-n1cnc2cc(C(=O)NC3CCCCCC3)ccc21`, the inhibition was -10.8%.

`COc1ccccc1N1CCN(S(=O)(=O)c2ccc(F)c(C(=O)Nc3ccc(Cl)cc3C(F)(F)F)c2)CC1`: the inhibition was found to be 8.41%.

As for `O=C(CCn1c(=O)sc2ccccc21)NCc1ccco1`, the inhibition was active: 41.8%.

For `O=C(Nc1ccccc1Cl)[C@H](CSCc1ccccc1)N1Cc2ccccc2C1=O`, the inhibition was found to be 2.95%.

Turning to `O=C(c1ccc2c(c1)CCN2S(=O)(=O)c1ccccc1)N1CCN(c2ccccc2F)CC1`, the inhibition was -2.48%.

On to `CC(C)c1ccc(CNC(=O)c2ccc(N3CCCC3)c(NC(=O)NCc3ccccc3)c2)cc1`, for which the inhibition was -16.3%.

With `CCc1ccc2occ(CC(=O)Nc3ccc(OC)c(Cl)c3)c2c1`, the inhibition is 23.9%.

In the case of `Cc1nc(SCC(=O)Nc2ccc(C)c(Cl)c2)cc(-c2ccccc2)n1`, the inhibition came out at 8.55%.

On to `CCOc1ccc(C(=O)Oc2c(Sc3ccccc3)c(C)nn2C(C)(C)C)cc1OCC`, for which the inhibition worked out at 1.32%.

Consider `COCCn1c(SCC(=O)Nc2ccccc2OC)nc2ccccc21`, for which the inhibition was active: 34.6%.

For `CC(=O)c1ccc(NC(=O)Nc2sc3nc4n(c(=O)c3c2C)CCC(C)CC4)cc1` (stereo not given), the inhibition was -4.47%.

Take `COc1ccc(CN(Cc2ccco2)C(=O)COc2ccccc2OC)cc1`: the inhibition is -6.3%.

Turning to `Cc1nc(Nc2cccc(O)c2)c2oc3ccccc3c2n1`, the inhibition was active: 32.6%.

Consider `COc1ccccc1N1CCN(C2CCCN(S(=O)(=O)c3cccc(Cl)c3)C2)CC1` (stereo not given), for which the inhibition was active: 53.3%.

Take `CN(C(=O)c1cnc(N2CCOCC2)c2ccccc12)c1ccccc1F`: the inhibition was -13.8%.

For `CCn1nc(-c2ccccc2)c(-c2ccccc2)c(C(=O)Nc2ccccc2C(N)=O)c1=O`, the inhibition is -0.67%.

Take `O=C(Cc1ccccc1)NC1CC(=O)N(c2ccc3c(c2)OCCO3)C1` (stereo not given): the inhibition is -18.3%.

Turning to `Cc1c(CC(=O)N2CCCCC2)c(=O)oc2c(C)c(O)ccc12`, the inhibition was -5.71%.

For `CCN(CC)c1ccc(NC(=O)C(NS(=O)(=O)c2cccs2)C(C)C)c(C)c1` (stereo not given), the inhibition is -2.08%.

Consider `O=C(OCc1ccccc1F)c1ccc(-c2nnn(Cc3ccccc3)n2)cc1`, for which the inhibition was -1.65%.

On to `O=C1c2ccccc2-c2onc3c(Br)cc(NC4CCCCC4)c1c23`, for which the inhibition was determined as 0.611%.

Take `Cc1cccc(N2C(=O)CSC23C(=O)N(CC(=O)NCCc2ccccc2)c2ccccc23)c1` (stereo not given): the inhibition was found to be 2.62%.

With `O=C(CSc1nnc(-c2cccs2)o1)Nc1cccc(C(F)(F)F)c1`, the inhibition was -23.4%.

Turning to `COc1ccc(-c2cc(C(F)(F)F)n3nc(-c4ccc(Cl)cc4)cc3n2)cc1OC`, the inhibition is 3.43%.

In the case of `Nc1nc(CN2CCN(c3ccc(F)cc3)CC2)nc(N2CCCc3ccccc32)n1`, the inhibition is active: 54.4%.

For the molecule `COCCNC(=O)CSc1nc2cc3c(cc2c(=O)n1CCCCCC(=O)NCCc1ccc(OC)c(OC)c1)OCO3`, the inhibition stood at 13.8%.
